Results reported in publication PMC11905140.
These are yes or no findings as the source states them, for the method shown. In cells and extracts the contact can be indirect.

Legend:
[1] = molecular target: ZNF217 (zinc finger protein 217), endogenous (human (endogenous in KOPN-8 and SUP-B15)), O75362; experiment: co-IP; endogenous co-IP: anti-ZNF217 IP (IgG control) from RIPA lysates of KOPN-8 and SUP-B15 cells; Protein A/G magnetic beads, overnight at 4 °C; wash 10 mM Tris-HCl pH 7.5, 1 mM EDTA, 150 mM NaCl, 1% Triton X-100, 0.2 mM sodium orthovanadate; Western blot; conditions: remark: other sources report otherwise
[2] = molecular target: Flag-tagged ZNF217 (zinc finger protein 217) (human), O75362; experiment: co-IP; exogenous co-IP: anti-Flag IP from RIPA lysates of KOPN-8 and SUP-B15 cells with ectopic Flag-tagged ZNF217 (or ZNF217 1-272) or an empty vector; Protein A/G magnetic beads, overnight at 4 °C; wash 10 mM Tris-HCl pH 7.5, 1 mM EDTA, 150 mM NaCl, 1% Triton X-100, 0.2 mM sodium orthovanadate; Western blot; conditions: remark: other sources report otherwise
[3] = molecular target: METTL3 (human (endogenous in KOPN-8 and SUP-B15)), Q86U44; experiment: co-IP; reciprocal co-IP: IP of the partner (anti-LSD1 is the only partner antibody listed for co-IP) from RIPA lysates of B-ALL cells (KOPN-8 and SUP-B15 in Figure 4C; KOPN-8 in Figure S4D); Protein A/G magnetic beads, overnight at 4 °C; Western blot; conditions: remark: other sources report otherwise
[4] = molecular target: Flag-tagged ZNF217 (zinc finger protein 217) (human) (UniProt O75362); experiment: co-IP; exogenous co-IP: anti-Flag IP from RIPA lysates of KOPN-8 and SUP-B15 cells with ectopic Flag-tagged ZNF217 (or ZNF217 1-272) or an empty vector; Protein A/G magnetic beads, overnight at 4 °C; wash 10 mM Tris-HCl pH 7.5, 1 mM EDTA, 150 mM NaCl, 1% Triton X-100, 0.2 mM sodium orthovanadate; Western blot

B1: YTHDF2, Q9Y5A9 1-579 (protein)
chain: MSASSLLEQRPKGQGNKVQNGSVHQKDGLNDDDFEPYLSPQARPNNAYTAMSDSYLPSYYSPSIGFSYSLGEAAWSTGGDTAMPYLTSYGQLSNGEPHFLPDAMFGQPGALGSTPFLGQHGFNFFPSGIDFSAWGNNSSQGQSTQSSGYSSNYAYAPSSLGGAMIDGQSAFANETLNKAPGMNTIDQGMAALKLGSTEVASNVPKVVGSAVGSGSITSNIVASNSLPPATIAPPKPASWADIASKPAKQQPKLKTKNGIAGSSLPPPPIKHNMDIGTWDNKGPVAKAPSQALVQNIGQPTQGSPQPVGQQANNSPPVAQASVGQQTQPLPPPPPQPAQLSVQQQAAQPTRWVAPRNRGSGFGHNGVDGNGVGQSQAGSGSTPSEPHPVLEKLRSINNYNPKDFDWNLKHGRVFIIKSYSEDDIHRSIKYNIWCSTEHGNKRLDAAYRSMNGKGPVYLLFSVNGSGHFCGVAEMKSAVDYNTCAGVWSQDKWKGRFDVRWIFVKDVPNSQLRHIRLENNENKPVTNSRDTQEVPLEKAKQVLKIIASYKHTTSIFDDFSHYEKRQEEEESVKKERQGRGK
binding [1]: no binding
binding [2]: no binding

B2: ZNF217 (zinc finger protein 217), endogenous, O75362 1-1048 (protein)
chain: MQSKVTGNMPTQSLLMYMDGPEVIGSSLGSPMEMEDALSMKGTAVVPFRATQEKNVIQIEGYMPLDCMFCSQTFTHSEDLNKHVLMQHRPTLCEPAVLRVEAEYLSPLDKSQVRTEPPKEKNCKENEFSCEVCGQTFRVAFDVEIHMRTHKDSFTYGCNMCGRRFKEPWFLKNHMRTHNGKSGARSKLQQGLESSPATINEVVQVHAAESISSPYKICMVCGFLFPNKESLIEHRKVHTKKTAFGTSSAQTDSPQGGMPSSREDFLQLFNLRPKSHPETGKKPVRCIPQLDPFTTFQAWQLATKGKVAICQEVKESGQEGSTDNDDSSSEKELGETNKGSCAGLSQEKEKCKHSHGEAPSVDADPKLPSSKEKPTHCSECGKAFRTYHQLVLHSRVHKKDRRAGAESPTMSVDGRQPGTCSPDLAAPLDENGAVDRGEGGSEDGSEDGLPEGIHLDKNDDGGKIKHLTSSRECSYCGKFFRSNYYLNIHLRTHTGEKPYKCEFCEYAAAQKTSLRYHLERHHKEKQTDVAAEVKNDGKNQDTEDALLTADSAQTKNLKRFFDGAKDVTGSPPAKQLKEMPSVFQNVLGSAVLSPAHKDTQDFHKNAADDSADKVNKNPTPAYLDLLKKRSAVETQANNLICRTKADVTPPPDGSTTHNLEVSPKEKQTETAADCRYRPSVDCHEKPLNLSVGALHNCPAISLSKSLIPSITCPFCTFKTFYPEVLMMHQRLEHKYNPDVHKNCRNKSLLRSRRTGCPPALLGKDVPPLSSFCKPKPKSAFPAQSKSLPSAKGKQSPPGPGKAPLTSGIDSSTLAPSNLKSHRPQQNVGVQGAATRQQQSEMFPKTSVSPAPDKTKRPETKLKPLPVAPSQPTLGSSNINGSIDYPAKNDSPWAPPGRDYFCNRSASNTAAEFGEPLPKRLKSSVVALDVDQPGANYRRGYDLPKYHMVRGITSLLPQDCVYPSQALPPKPRFLSSSEVDSPNVLTVQKPYGGSGPLYTCVPAGSPASSSTLEGKRPVSYQHLSNSMAQKRNYENFIGNAHYRPNDKKT
binding [3]: no binding

B3: METTL14 (protein, UniProt Q9HCE5 1-456)
chain: MDSRLQEIRERQKLRRQLLAQQLGAESADSIGAVLNSKDEQREIAETRETCRASYDTSAPNAKRKYLDEGETDEDKMEEYKDELEMQQDEENLPYEEEIYKDSSTFLKGTQSLNPHNDYCQHFVDTGHRPQNFIRDVGLADRFEEYPKLRELIRLKDELIAKSNTPPMYLQADIEAFDIRELTPKFDVILLEPPLEEYYRETGITANEKCWTWDDIMKLEIDEIAAPRSFIFLWCGSGEGLDLGRVCLRKWGYRRCEDICWIKTNKNNPGKTKTLDPKAVFQRTKEHCLMGIKGTVKRSTDGDFIHANVDIDLIITEEPEIGNIEKPVEIFHIIEHFCLGRRRLHLFGRDSTIRPGWLTVGPTLTNSNYNAETYASYFSAPNSYLTGCTEEIERLRPKSPPPKSKSDRGGGAPRGGGRGGTSAGRGRERNRSNFRGERGGFRGGRGGAHRGGFPPR
binding [4]: no binding

B4: METTL16 (protein, UniProt Q86W50 1-562)
chain: MALSKSMHARNRYKDKPPDFAYLASKYPDFKQHVQINLNGRVSLNFKDPEAVRALTCTLLREDFGLSIDIPLERLIPTVPLRLNYIHWVEDLIGHQDSDKSTLRRGIDIGTGASCIYPLLGATLNGWYFLATEVDDMCFNYAKKNVEQNNLSDLIKVVKVPQKTLLMDALKEESEIIYDFCMCNPPFFANQLEAKGVNSRNPRRPPPSSVNTGGITEIMAEGGELEFVKRIIHDSLQLKKRLRWYSCMLGKKCSLAPLKEELRIQGVPKVTYTEFCQGRTMRWALAWSFYDDVTVPSPPSKRRKLEKPRKPITFVVLASVMKELSLKASPLRSETAEGIVVVTTWIEKILTDLKVQHKRVPCGKEEVSLFLTAIENSWIHLRRKKRERVRQLREVPRAPEDVIQALEEKKPTPKESGNSQELARGPQERTPCGPALREGEAAAVEGPCPSQESLSQEENPEPTEDERSEEKGGVEVLESCQGSSNGAQDQEASEQFGSPVAERGKRLPGVAGQYLFKCLINVKKEVDDALVEMHWVEGQNRDLMNQLCTYIRNQIFRLVAVN
binding [4]: no binding
